Measured values from PMC10726135.
Some of the results follow. At the low end of the ranking the order means little. Measured with an extract: partners may take part in the binding.

molecular target: T1, HNF4alpha2 (COS-7 nuclear extract) (UniProt P41235); assay: protein-binding microarray; details: COS-7 nuclear extract on double-stranded Agilent 4x180k PBM; binding buffer, salt, pH and temperature not given; high values mean tight binding; double strand, one strand shown; sequences stand for … in …GCCTAGGGAGATTAGAGTATCGGTCGA
T1 sequence: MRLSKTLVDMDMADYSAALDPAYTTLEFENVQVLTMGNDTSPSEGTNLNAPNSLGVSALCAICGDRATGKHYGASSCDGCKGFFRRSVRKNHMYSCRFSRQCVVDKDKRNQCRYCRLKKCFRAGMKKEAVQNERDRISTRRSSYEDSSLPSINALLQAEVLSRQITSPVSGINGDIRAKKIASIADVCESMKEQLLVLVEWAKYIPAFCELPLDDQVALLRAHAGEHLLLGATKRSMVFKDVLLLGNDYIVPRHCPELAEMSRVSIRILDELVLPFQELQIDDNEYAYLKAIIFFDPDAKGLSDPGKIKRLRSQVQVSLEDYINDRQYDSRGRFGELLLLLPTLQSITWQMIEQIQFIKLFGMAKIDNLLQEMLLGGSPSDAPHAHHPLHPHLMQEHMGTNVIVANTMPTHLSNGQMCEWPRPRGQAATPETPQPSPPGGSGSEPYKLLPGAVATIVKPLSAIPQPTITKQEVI

Row | Sequence | binding signal (log2 normalized intensity)
1 | TGCTCGGAACACGAGGTGAGAGGCGGAACA | 0.453
2 | GTCTCAAAGTTCACCACTTTTGCAATGTTT | 2.05
3 | GTAAAGGTGGTTTGGGTAATAACATGTAAT | 0.896
4 | GGGTGCCTGATAATGACTCTTGAACCACAG | 1.49
5 | TTCTTTGTACCGTATTTCAGACCACCCAGT | 2.98
6 | AGGTCAAAGTGCAACTACAAGGAGCAGCCT | 3.48
7 | CCTAAGCCTTATTATCTGCTTTTATGACCT | 3.06
8 | AAATATGTTCCACCCAGGGTGGCAGGCTCT | -1.12
9 | AACTATGCAGTGTCCATGGTGACCATGTGA | 1.29
10 | ATTTGGCCACATCCTGTCTCCTTTAACCTT | 2.12
11 | CTGTTTGACCAAAGCTACTCATCATGAACT | -0.0277
12 | CTCAGAGCATATGTTGACCCGAGTGCCCTT | 4.52
13 | AGGACTCAATGATACCATCAGATACCTACT | -1.09
14 | GGTTTATTTTTATCTGTTTATTTTGCAATT | 0.565
15 | AGGGAGGCCTAGACACAGACTCAAGTGAGG | -1.17
16 | ACACCGTCCAGAGGCTCCAAAGGACACTCC | -1.03
17 | ACACAGGCGACCTTCGCTCGGCTCGCTCTC | 1.92
18 | TCACAGAGCAGAGAAAATTCTAGATAACTC | -1.29
19 | TGCAATGCGGAATGACATTCAGCAACTGGG | -1.16
20 | GCTTTCTATTCAGACCTTCAACTATTTGGA | 1.31
21 | AACTTCTCACCTTCAGATGCCATGTCTAAA | 0.667
22 | AGCTTGAATCACTCACTGACCTCTTTTGGA | 2.38
23 | CAGAGAGGTCAGCAAATGTGGACACTTTGA | 0.903

Row | Sequence | binding signal (log2 normalized intensity)
24 | AAATGAAGTGGTATCCTGCAGTCAGTCTGA | 0.109
25 | TCTCACCAGACCAAGAGCTTAACCTTTGCC | 3.13
26 | ATGATAACCCCCGTCACTGCAAGGCAAACA | 3.56
27 | GTCTCCTTTCAAGGCAGATTTCTGTCTTTG | 0.579
28 | CTAAGCTTGTAGACCAAGGAGGCCTCTTCC | -1.11
29 | TATCAGTGTTGACCTCTGGACCTCATCTTC | 5.36
30 | ACGTGCAGCAATAGGTCAGAGGACACCCGG | -1.16
31 | AGACTGCCATTCCAGAAGTAGGATGGGGAG | -1.1
32 | CCAGGCAATCAGCCTTAGGTATGCCCCATG | 0.155
33 | AAGGGTCAATGTGATCAGGTGTGGGCATTA | 1.62
34 | TCCCCCAACCCCACCTTCATTCTTCATGGG | 3.34
35 | AGAGCAAAGGTGATCTGCTGGAATGAAGAC | -1.08
36 | ACCCAGAGAATGCTAGACAAGGGAATTACT | -1.24
37 | AACTCTCTGTGGATGTATGTCCAGATAACT | 1.55
38 | TAACAAAAATATCACAATCCTTAAGCAGCA | -1.1
39 | TCAACTTTCAACATTTAACTTAACCACTCA | -0.00171
40 | CATTTGAGTACATGCCTCTCCCAGTGGAAT | 1.19
41 | CTGGCTGCCCTGGGGATCAAAGCGTATGGG | -0.735
42 | AGTTCAATTTCCAACAAATGAAACTAAAGG | -1.15
43 | CAAATAGACTGGTTTGCACAGGTTACACAG | -1.13
44 | TGGGCAATGTCAACAAATACTGACCTGAGA | 0.677
45 | CCTCCAGCTCTTGGGGAACAATCGCCACTG | -1.19
46 | CCTGCCTCAGGCCGACCCCTGCCTGGACTG | 1.99
